Data as given in PubChem BioAssay AID1030 (National Center for Advancing Translational Sciences (NCATS), 2008).
The whole screen tested about 220,000 compounds, of which about 16,000 (7.3%) were called active. The inconclusive results got no clear call from the source; some entries with a clear call stand among them for comparison. Calls come from the whole dose curve; as a rule, active = well fitted inhibition curve with a large enough effect (not every such curve was filed as active); inconclusive = small, poorly fitted or top-dose-only effect, or another doubt; inactive = no such curve, though single readings can be large or run the other way. No potency is given beside an inconclusive call; the fits are too rough.

target: Aldehyde dehydrogenase 1A1 (Homo sapiens) (UniProt P00352); assay: qHTS Assay for Inhibitors of Aldehyde Dehydrogenase 1 (ALDH1A1); settings: Purified ALDH1A1, NADH fluorescence, propionaldehyde substrate; series mostly up to 75.3 µM; activity, negative = inhibition: at the top concentration;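 for activity, negative = inhibition: plate controls were no enzyme wells and a reference inhibitor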
Sequence of UniProt P00352 (P00352 whole entry, looked up): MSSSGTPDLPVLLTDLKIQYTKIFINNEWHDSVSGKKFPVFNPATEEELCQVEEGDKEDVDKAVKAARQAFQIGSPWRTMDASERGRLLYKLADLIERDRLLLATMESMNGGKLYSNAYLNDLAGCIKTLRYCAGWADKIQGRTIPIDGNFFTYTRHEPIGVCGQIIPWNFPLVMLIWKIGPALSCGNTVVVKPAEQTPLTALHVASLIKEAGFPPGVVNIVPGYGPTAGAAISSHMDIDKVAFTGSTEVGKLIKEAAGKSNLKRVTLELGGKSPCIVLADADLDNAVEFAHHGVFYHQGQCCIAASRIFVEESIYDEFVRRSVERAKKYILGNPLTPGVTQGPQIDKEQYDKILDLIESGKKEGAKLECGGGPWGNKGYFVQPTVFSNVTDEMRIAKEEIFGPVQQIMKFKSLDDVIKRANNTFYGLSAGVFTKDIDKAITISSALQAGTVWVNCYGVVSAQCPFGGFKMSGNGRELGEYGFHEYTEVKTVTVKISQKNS
Potency is the fitted concentration of half-maximal effect; tags give direction and shape of the fitted curve.

**Q.** With Cn1c(CSc2nnc(SCc3ccccc3)s2)nc2ccccc21 as the molecule, how does the Potency read?
**A.** active: 25.1 µM

**Q.** CCOc1cc(CNc2ccc(N3CCN(C(C)=O)CC3)cc2)cc(Br)c1OC was tested. Which Potency did it give?
**A.** inconclusive [inhibitor, single point]

**Q.** For COc1ncc2nc(-c3ccc(F)cc3)c(=O)n(-c3ccccc3)c2n1, which Potency is on record?
**A.** inconclusive [inhibitor, partial curve]

**Q.** Which Potency does the source give for Cc1ccc(C(=O)Nc2ccc(C(=O)N/N=C/c3c[nH]c4ccccc34)cc2)cc1 here?
**A.** inconclusive [inhibitor, single point]

**Q.** Which Potency does the source give for Cc1cccc(-n2ncc3c(NCCCO)ncnc32)c1 here?
**A.** inconclusive [inhibitor, partial curve]

**Q.** Which Potency does the source give for O=C(NNc1nc2cc3c(cc2s1)OCCO3)c1ccccc1 here?
**A.** inconclusive [inhibitor, partial curve]

**Q.** For CCOC(=O)c1c(-c2ccccc2)csc1NC(=O)c1nn(CC)cc1Br, which Potency is on record?
**A.** inconclusive [inhibitor, partial curve]

**Q.** Which “activity, negative = inhibition” value does the source give for CCOC(=O)N1CCN(c2ccc(C(C)=O)cc2F)CC1C (stereo not given) here?
**A.** inactive: -3.25%

**Q.** With NS(=O)(=O)c1ccc(CCNC(=O)c2ccccc2F)cc1 as the molecule, how does the “activity, negative = inhibition” value read?
**A.** inactive: 15.6%

**Q.** With CC(=O)N(Cc1cc2c(C)cc(C)cc2[nH]c1=O)C1CCCCC1 as the molecule, how does the Potency read?
**A.** inconclusive [inhibitor, partial curve]

**Q.** With O=C(CN1C(=O)CSC1=O)Nc1ccc(N2CCOCC2)cc1 as the molecule, how does the Potency read?
**A.** inconclusive [inhibitor, single point]

**Q.** With CCOC(=O)N1CCN(c2nnnn2-c2ccccc2)CC1 as the molecule, how does the Potency read?
**A.** inconclusive [inhibitor, partial curve]

**Q.** For CCOC(=O)c1ccccc1NC(=O)CN(c1ccccc1)S(=O)(=O)N(C)C, which Potency is on record?
**A.** active: 28.2 µM

**Q.** COc1cccc(CNC(=O)CCC2CCCN(C(=O)Cc3ccccc3F)C2)c1 (stereo not given) was tested. Which Potency did it give?
**A.** active: 11.2 µM

**Q.** With Cc1onc(-c2c(Cl)cccc2Cl)c1C(=O)NCc1ccco1 as the molecule, how does the Potency read?
**A.** inconclusive [inhibitor, single point]

**Q.** With CC(NC(=O)COC(=O)C1CSC2(C)CCC(=O)N12)C12CC3CC(CC(C3)C1)C2 (stereo not given) as the molecule, how does the Potency read?
**A.** active: 4.47 µM

**Q.** Which Potency does the source give for COC(=O)c1cc2nc(-c3ccccc3)cc(C)n2n1 here?
**A.** inconclusive [inhibitor, partial curve]

**Q.** Which Potency does the source give for O=C(Cc1csc(Nc2nc(=S)[nH]c3ccccc23)n1)N1CCN(c2cccc(C(F)(F)F)c2)CC1 here?
**A.** inconclusive [inhibitor, single point]

**Q.** With CC(C)C[C@@H](CC(=O)N[C@@H](CCC(=O)O)CC(=O)O)NC(=O)[C@@H]1CNCC[C@H]1NC(=O)C[C@@H](NC(=O)C[C@H](Cc1ccccc1)NC(=O)[C@@H]1CNCC[C@H]1N)C(C)C as the molecule, how does the Potency read?
**A.** inconclusive [inhibitor, single point]

**Q.** For C=CCNC(=O)C(=O)NCCOc1ccccc1Cl, which “activity, negative = inhibition” value is on record?
**A.** inactive: 8.3%

**Q.** With O=C(O)CCC(=O)Nc1cccc(-c2csc(-c3ccccc3)n2)c1 as the molecule, how does the Potency read?
**A.** inconclusive [inhibitor, single point]

**Q.** CN(C)c1cccc(NC2=CC(=[N+]3CCOCC3)CC(C)(C)C2)c1 was tested. Which Potency did it give?
**A.** active: 28.2 µM

**Q.** How did the Potency turn out when CCN(CC)c1ccc(/C=C2\C(=O)c3ccc(C(=O)O)cc3C2=O)cc1 was run?
**A.** active: 3.16 µM

**Q.** How did the Potency turn out when O=C(C1CCCCC1)N1CCCC(c2nc3c(nnn3Cc3ccccc3)c(=O)[nH]2)C1 (stereo not given) was run?
**A.** active: 15.8 µM

**Q.** CCOc1ccc(/C=C2\SC(=S)N(CC(=O)N(CCO)C(C)(C)C)C2=O)cc1 was tested. Which “activity, negative = inhibition” value did it give?
**A.** inactive: -10.6%

**Q.** Which Potency does the source give for CC1CC(C)CN(S(=O)(=O)c2ccc(C(=O)NCc3ccc4c(c3)OCO4)cc2)C1 (stereo not given) here?
**A.** inconclusive [inhibitor, partial curve]

**Q.** For CC(C)Cc1cc(C(=O)Nc2sc3c(c2C#N)CCC3)no1, which Potency is on record?
**A.** active: 22.4 µM

**Q.** With CC1(C)CC(C(CC(=O)O)c2ccccc2)CCO1 (stereo not given) as the molecule, how does the Potency read?
**A.** inconclusive [inhibitor, partial curve]

**Q.** Which Potency does the source give for COc1ccc(OCC(=O)NNC(=O)c2ccc(-c3ccccc3)cc2)cc1 here?
**A.** inconclusive [inhibitor, single point]

**Q.** How did the Potency turn out when COc1ccc2nc(Nc3nc(C)c(CCC(C)C)c(=O)[nH]3)nc(C)c2c1 was run?
**A.** inconclusive [inhibitor, full curve]

**Q.** With COc1cc(/C=C(/C#N)c2nc(-c3cc4ccccc4oc3=O)cs2)cc([N+](=O)[O-])c1O as the molecule, how does the “activity, negative = inhibition” value read?
**A.** inactive: 4.46%

**Q.** O=S(=O)(c1ccc(Cl)cc1)N1CCC(N2CCCCCC2)CC1 was tested. Which Potency did it give?
**A.** inconclusive [inhibitor, single point]

**Q.** For CC(C)(C)c1cc(C(=O)/C=C/c2ccc(C(=O)O)cc2)cc(C(C)(C)C)c1, which “activity, negative = inhibition” value is on record?
**A.** inactive: 5.61%

**Q.** Cc1nn(-c2ccccc2)c2sc(-c3n[nH]c(=S)o3)cc12 was tested. Which Potency did it give?
**A.** inconclusive [inhibitor, partial curve]

**Q.** Which “activity, negative = inhibition” value does the source give for CC(=O)CCOC1CCCCO1 (stereo not given) here?
**A.** inactive: 9.21%

**Q.** Cc1cc(C(F)F)n2nc(C(=O)Nc3ccccc3F)nc2n1 was tested. Which Potency did it give?
**A.** inconclusive [inhibitor, single point]

**Q.** For Cc1ccsc1C(=O)N1CCCC(CCC(=O)NCc2ccccc2F)C1 (stereo not given), which “activity, negative = inhibition” value is on record?
**A.** inactive: -4.31%

**Q.** For O=C(C1CCCCC1)N1CCN(c2nc(-c3ccc(F)cc3)cs2)CC1, which Potency is on record?
**A.** inconclusive [inhibitor, full curve]

**Q.** For CCc1ccc(Nc2cc(=O)n(C3CCCCC3)c(=O)[nH]2)cc1, which Potency is on record?
**A.** active: 1.26 µM

**Q.** With CCOc1cccc(N(C(=O)Cc2cccs2)C(C(=O)NC2CCCCC2)c2cccn2C)c1 (stereo not given) as the molecule, how does the “activity, negative = inhibition” value read?
**A.** inactive: 8.15%

**Q.** Which Potency does the source give for COc1cccc(C(=O)NC(=S)NCc2ccco2)c1 here?
**A.** inconclusive [inhibitor, single point]

**Q.** CCOC(=O)CSc1nc2cc(C(=O)NCC3CCCO3)ccc2c(=O)n1Cc1ccco1 (stereo not given) was tested. Which Potency did it give?
**A.** inconclusive [inhibitor, partial curve]

**Q.** With Cc1ccc(O)c(C2=NNC(O)(C(F)(F)F)C2)c1 (stereo not given) as the molecule, how does the “activity, negative = inhibition” value read?
**A.** inactive: 9.25%

**Q.** Which Potency does the source give for COc1ccc(-n2nc3cc(C)c(NC(=S)NC(=O)c4ccccc4C)cc3n2)cc1 here?
**A.** inconclusive [inhibitor, partial curve]

**Q.** How did the Potency turn out when Cc1ccc(-c2csc(=Nc3cccnc3)n2CCCn2ccnc2)cc1C was run?
**A.** inconclusive [inhibitor, single point]
